In ChEMBL document CHEMBL4888484, “Replenishing the malaria drug discovery pipeline: Screening and hit evaluation of the MMV Hit Generation Library 1 (HGL1) against asexual blood stage Plasmodium falciparum ,using a nano luciferase reporter read-out” (2022):
Out of some 150,000 compounds screened, about 540 (0.36%) showed an effect of 50% or more. Some of the results follow.

The molecules below were run on Plasmodium falciparum (assay: Primary screen in NF54 nanoGlo assay, in single point, at 2uM, 72h; a lower Z score goes with more inhibition). Details: timepoint 72 hour.
Format: functional, Erythrocyte

| Structure (SMILES) | % Inhibition | Z score |
| --- | --- | --- |
| Cc1cc(OC2CCN(C(=O)CN3C(=O)CCC3=O)CC2)nc(C)n1 | -7% | 1.4 |
| CCCC1(CO)CCN(CC[C@H]2CC2(F)F)CC1 | -5% | 0.83 |
| Cc1nc(CN(C)C(=O)C2(c3ccccc3)CCOCC2)no1 | -8% | 1.46 |
| CCc1n[nH]cc1C(=O)NC1(COC)CCCC1 | -5% | 0.94 |
| O=C(N1CCC(CCO)C1)[C@]12CCC[C@H]1CN(Cc1ccccc1)C2 (stereo partly specified) | -22% | 2.8 |
| c1cnc(N[C@H]2CCC[C@H]2Cn2ccnn2)nc1 | -3% | 0.51 |
| Cc1nc(-c2cc3cccc(C)c3nc2NCCc2ccccn2)no1 | -10% | 1.84 |
| CC(=O)Oc1c(-c2ccc(NC(=O)c3ccccc3)cc2)c(-c2cccc(C)c2)nn1-c1cccc(F)c1 | 3% | -0.37 |
| Cc1ccc(C)c(OCCN(C)CCn2nccc2C)c1 | 4% | -0.71 |
| CCN1C(=O)[C@@]2(c3ccccc31)[C@@H]1C(=O)N(Cc3ccccc3)C(=O)[C@@H]1[C@@H]1CCCN12 | -9% | 1.2 |
| O=c1[nH]c2c(cnn2Cc2ccccc2)c(O)c1-c1nc(-c2ccc(F)cc2)no1 | -10% | 1.05 |
| COc1nc(NCCCOC2CCCC2)ncc1F | -9% | 1.07 |
| O=C(Cn1c(=O)n(CC2CC2)c2ccc(C(=O)O)cc21)NCc1cccs1 | -9% | 1.53 |
| CC1CCCN(C(=O)NC(c2ccccc2)c2cc3ccccc3o2)C1 (stereo unspecified) | 0% | 0.02 |
| O=C(NC[C@@]12CCCC=C1N(CC1CC1)C(=O)CC2)c1ccc2ccccc2n1 | -15% | 2.2 |
| C[C@H]1CN(Cc2ccccc2C(=O)O)C[C@]1(O)C1CC1 | 5% | -0.79 |
| CC(C)CN1CCN([C@H]2CCOC3(CCN(C(=O)CCc4ccccc4)CC3)C2)CC1 | -28% | 2.96 |
| COc1ccccc1N1CC[C@H](N2CCc3nc[nH]c3C23CCOCC3)C1=O | 1% | -0.1 |
| Cc1nc2c(c(=O)n1CC(=O)Nc1ccc(F)cc1Cl)CN(Cc1ccccc1)CC2 | -2% | 0.3 |
| Cc1nccn1C1CN(C(=O)[C@H](C)Oc2ccccc2)C1 | -14% | 1.79 |
| CNC(=O)[C@@H]1CN(C(=O)c2ccccn2)C[C@H]1COC | -3% | 0.46 |
| Cc1nn(C)c(C)c1CN(C)c1cc(C2CC(N)C2)nc(C2CC2)n1 (stereo unspecified) | 8% | -1.35 |
| Cc1ccc(CNC(=O)CNC(=O)c2cscn2)nc1C | 31% | -3.52 |
